In publication PMC5779705:
No constants are given. Whether binding was seen depends on the method and setting. In cells and extracts the contact can be indirect. Some entries that bind do so weakly or less than the wild type. Sequences can lack the tags named with a protein.

T1: C-terminally myc-tagged Ctr9 (S. cerevisiae) (UniProt P89105)
T1 sequence: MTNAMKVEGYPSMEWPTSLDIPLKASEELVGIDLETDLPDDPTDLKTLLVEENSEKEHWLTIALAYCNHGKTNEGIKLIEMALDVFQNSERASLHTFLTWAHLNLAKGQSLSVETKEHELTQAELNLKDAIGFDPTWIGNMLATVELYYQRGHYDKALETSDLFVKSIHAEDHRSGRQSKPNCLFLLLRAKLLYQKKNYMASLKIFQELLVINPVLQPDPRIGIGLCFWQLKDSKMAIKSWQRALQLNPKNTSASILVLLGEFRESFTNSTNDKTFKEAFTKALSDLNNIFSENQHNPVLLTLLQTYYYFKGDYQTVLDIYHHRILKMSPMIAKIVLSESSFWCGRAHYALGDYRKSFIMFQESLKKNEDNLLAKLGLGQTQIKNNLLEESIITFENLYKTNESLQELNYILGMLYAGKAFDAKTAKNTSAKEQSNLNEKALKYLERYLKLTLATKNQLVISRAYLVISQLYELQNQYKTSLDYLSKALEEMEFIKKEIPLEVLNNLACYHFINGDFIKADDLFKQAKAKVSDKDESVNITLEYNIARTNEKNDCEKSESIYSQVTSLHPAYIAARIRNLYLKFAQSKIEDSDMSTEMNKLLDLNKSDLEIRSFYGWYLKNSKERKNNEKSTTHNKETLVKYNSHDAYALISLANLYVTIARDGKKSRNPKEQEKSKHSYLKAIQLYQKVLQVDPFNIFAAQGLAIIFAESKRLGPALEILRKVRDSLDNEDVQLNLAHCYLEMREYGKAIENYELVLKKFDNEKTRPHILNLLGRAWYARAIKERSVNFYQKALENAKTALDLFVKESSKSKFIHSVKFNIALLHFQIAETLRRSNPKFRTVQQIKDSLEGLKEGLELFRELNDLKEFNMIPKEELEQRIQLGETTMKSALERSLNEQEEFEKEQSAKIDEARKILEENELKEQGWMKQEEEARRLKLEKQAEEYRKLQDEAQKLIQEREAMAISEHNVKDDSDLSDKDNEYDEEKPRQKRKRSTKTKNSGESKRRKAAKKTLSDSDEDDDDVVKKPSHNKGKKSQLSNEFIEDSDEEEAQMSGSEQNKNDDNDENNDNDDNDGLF

T2: C-terminally myc-tagged Leo1 (S. cerevisiae) (UniProt P38439)
T2 sequence: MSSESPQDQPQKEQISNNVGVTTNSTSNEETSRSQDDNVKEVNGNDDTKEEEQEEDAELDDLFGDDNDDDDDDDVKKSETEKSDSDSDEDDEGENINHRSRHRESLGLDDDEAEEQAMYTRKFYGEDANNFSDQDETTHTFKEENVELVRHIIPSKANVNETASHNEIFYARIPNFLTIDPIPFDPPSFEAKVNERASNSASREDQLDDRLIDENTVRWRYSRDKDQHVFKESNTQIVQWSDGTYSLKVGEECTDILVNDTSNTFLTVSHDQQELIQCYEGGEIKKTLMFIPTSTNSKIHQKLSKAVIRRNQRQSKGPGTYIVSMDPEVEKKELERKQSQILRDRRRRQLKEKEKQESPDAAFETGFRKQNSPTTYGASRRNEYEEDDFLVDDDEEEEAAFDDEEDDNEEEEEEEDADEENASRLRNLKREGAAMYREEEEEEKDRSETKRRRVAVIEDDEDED

T3: C-terminally myc-tagged Paf1 (S. cerevisiae) (UniProt P38351)
T3 sequence: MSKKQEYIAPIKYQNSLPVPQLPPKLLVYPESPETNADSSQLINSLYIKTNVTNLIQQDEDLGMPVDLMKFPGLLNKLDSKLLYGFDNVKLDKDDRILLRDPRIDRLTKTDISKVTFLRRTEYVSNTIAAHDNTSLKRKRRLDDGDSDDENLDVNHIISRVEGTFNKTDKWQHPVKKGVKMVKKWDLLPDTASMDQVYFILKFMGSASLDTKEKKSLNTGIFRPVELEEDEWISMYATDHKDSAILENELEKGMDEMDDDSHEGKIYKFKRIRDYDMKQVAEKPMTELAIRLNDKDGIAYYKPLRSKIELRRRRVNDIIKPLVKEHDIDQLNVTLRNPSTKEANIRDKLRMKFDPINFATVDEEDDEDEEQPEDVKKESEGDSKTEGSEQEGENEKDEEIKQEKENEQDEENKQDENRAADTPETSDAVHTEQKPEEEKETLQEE

B1: C-terminally Venus-tagged Cdc73Δ230–393 (domain or fragment, UniProt Q06697 1-229)
chain: MANSLDRLREHLKNGDKLVLKNNEGQSTDDITKATMVETLSSDGSTQDSFPLNEETEIEIDGSLVQLRIIVHCWMNKDSSAADYLADCQNKQLTNVSFLQRTDLINWLSGNTESSQYLKAPGQKGETSDKVDIENKTLAGELSTVKSTTSASLENDSEVSDPVVVETMKHERILVDHNSALRGAKPINFGYLIKDAELKLVQSIKGSLRGSKLPPGHKGAHGRISKTNG
B2: C-terminally Venus-tagged Cdc73Δ2–124 (domain or fragment, UniProt Q06697)
chain: MGETSDKVDIENKTLAGELSTVKSTTSASLENDSEVSDPVVVETMKHERILVDHNSALRGAKPINFGYLIKDAELKLVQSIKGSLRGSKLPPGHKGAHGRISKTNGSSGGPRKDPIILIPSAASSILTVANIKQFLLESKYVNPRNLPSVPNGLVNIEKNFERISRPIRFIIVDNTRMFTKPEYWDRVVAIFTTGHTWQFNNYQWNSPQELFQRCKGYYFHFAGDSVPQHVQQWNVEKVELDKNKRFKDVEVVRYFWHSLEKELISRGYR
B3: C-terminally Venus-tagged Cdc73Δ125–229 (domain or fragment, UniProt Q06697)
chain: MANSLDRLREHLKNGDKLVLKNNEGQSTDDITKATMVETLSSDGSTQDSFPLNEETEIEIDGSLVQLRIIVHCWMNKDSSAADYLADCQNKQLTNVSFLQRTDLINWLSGNTESSQYLKAPGQKSSGGPRKDPIILIPSAASSILTVANIKQFLLESKYVNPRNLPSVPNGLVNIEKNFERISRPIRFIIVDNTRMFTKPEYWDRVVAIFTTGHTWQFNNYQWNSPQELFQRCKGYYFHFAGDSVPQHVQQWNVEKVELDKNKRFKDVEVVRYFWHSLEKELISRGYR
B4: C-terminally Venus-tagged full-length Cdc73 (protein, UniProt Q06697 1-393)
chain: MANSLDRLREHLKNGDKLVLKNNEGQSTDDITKATMVETLSSDGSTQDSFPLNEETEIEIDGSLVQLRIIVHCWMNKDSSAADYLADCQNKQLTNVSFLQRTDLINWLSGNTESSQYLKAPGQKGETSDKVDIENKTLAGELSTVKSTTSASLENDSEVSDPVVVETMKHERILVDHNSALRGAKPINFGYLIKDAELKLVQSIKGSLRGSKLPPGHKGAHGRISKTNGSSGGPRKDPIILIPSAASSILTVANIKQFLLESKYVNPRNLPSVPNGLVNIEKNFERISRPIRFIIVDNTRMFTKPEYWDRVVAIFTTGHTWQFNNYQWNSPQELFQRCKGYYFHFAGDSVPQHVQQWNVEKVELDKNKRFKDVEVVRYFWHSLEKELISRGYR
B5: C-terminally Venus-tagged Cdc73:125–229 (domain or fragment, UniProt Q06697 125-229)
chain: GETSDKVDIENKTLAGELSTVKSTTSASLENDSEVSDPVVVETMKHERILVDHNSALRGAKPINFGYLIKDAELKLVQSIKGSLRGSKLPPGHKGAHGRISKTNG

The binders below were run against T1, C-terminally myc-tagged Ctr9 (S. cerevisiae) (assay: co-IP; lysates of log-phase doubly tagged S. cerevisiae strains; anti-c-myc MicroBeads (μMACS) 30 minutes on ice; Western blot with anti-GFP/Venus antibody; for Paf1-myc and Cdc73-Venus also in leo1Δ and rtf1Δ strains).

binding	Binder
binds	B1
binds	B2
binds weakly	B3
binds	B4
binds	B5

The binders below were run against T2, C-terminally myc-tagged Leo1 (S. cerevisiae) in the same assay as above.

binding	Binder
binds	B1
binds	B2
binds weakly	B3
binds	B4
binds	B5

The binders below were run against T3, C-terminally myc-tagged Paf1 (S. cerevisiae) in the same assay as above.

binding	Binder
no binding	B3

These binders were tested against C-terminally myc-tagged Rtf1 (S. cerevisiae) (UniProt P53064) in the same assay as above.

binding	Binder
binds	B1
binds	B2
no binding	B3
binds	B4
binds	B5
